# Hit rate of the full screen: of about 220,000 compounds, about 2,300 (1%) were called active. The shares of active, inactive and inconclusive entries below differ from those in the screen. Calls come from the whole dose curve; as a rule, active = well fitted inhibition curve with a large enough effect; inconclusive = small, poorly fitted or top-dose-only effect, or effect the other way; inactive = no such curve, though single readings can be large or run the other way. No potency is given beside an inconclusive call; the fits are too rough.
# Target: Neuropeptide S receptor (Homo sapiens) (UniProt Q6W5P4)
# Sequence of UniProt Q6W5P4 (Q6W5P4 whole entry, looked up): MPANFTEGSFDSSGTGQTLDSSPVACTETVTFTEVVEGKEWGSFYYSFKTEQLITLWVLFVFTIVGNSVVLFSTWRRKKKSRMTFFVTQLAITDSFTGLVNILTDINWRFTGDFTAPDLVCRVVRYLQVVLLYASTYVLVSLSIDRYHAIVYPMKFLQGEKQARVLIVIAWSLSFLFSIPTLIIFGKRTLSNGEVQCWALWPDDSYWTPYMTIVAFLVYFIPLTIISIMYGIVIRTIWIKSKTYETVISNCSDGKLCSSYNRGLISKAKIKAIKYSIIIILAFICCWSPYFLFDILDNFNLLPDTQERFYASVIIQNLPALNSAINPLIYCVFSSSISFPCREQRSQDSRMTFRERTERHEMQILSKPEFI
# Assay: qHTS Assay for Antagonists of the Neuropeptide S Receptor: cAMP Signal Transduction; note: nearly all actives have a fitted effect of over 50% in size
# Details: CHO-NPSR cells, cAMP TR-FRET, antagonist mode; series mostly up to 38.3 µM
# Potency is the fitted concentration of half-maximal effect; tags give direction and shape of the fitted curve.
row,Structure (SMILES),Potency
1,COc1cc(OC)c(C2=NOC(C(=O)N3CCc4ccccc4C3)C2)cc1Cl (configuration not stated),inactive
2,COC(=O)c1ccc(CSc2nc3cc(Cl)ccc3o2)cc1,"inconclusive [inhibitor, single point]"
3,CCN(CC)S(=O)(=O)c1cc(NC(=O)Cn2ncc(Cl)c(Cl)c2=O)ccc1C,"inconclusive [activator, single point]"
4,C=C(C)C1(O)OC(=O)C=C1OC (configuration not stated),inactive
5,Cc1ccc(N=Cc2sc(O)c3ccccc23)cc1,"inconclusive [inhibitor, single point]"
6,COc1ccc(C(C#N)=C2C=CC(=NO)C=C2)cc1,"inconclusive [inhibitor, single point]"
7,COc1ccc(C(=O)/C=C/C(=O)N(CC(=O)NC2CCCCC2)Cc2ccccc2OC)c(O)c1,"inconclusive [activator, partial curve]"
8,Cc1cc(C)cc(Oc2nc(-c3ccccc3)cc(C)c2S(C)(=O)=O)c1,"inconclusive [inhibitor, single point]"
9,CCC(=O)Nc1cc(C(=O)OC(C(=O)c2ccc(C)c(C)c2)c2ccccc2)ccc1C (configuration not stated),"inconclusive [inhibitor, partial curve]"
10,COCCN(CCOC)S(=O)(=O)c1ccc(C(=O)Nc2sc3c(c2C(N)=O)CCCCC3)cc1,inactive
11,COCCn1c(SCC(=O)Nc2sccc2C(N)=O)nc2cc(Cl)ccc2c1=O,"inconclusive [inhibitor, single point]"
12,Cc1c(C(=O)N2CCCC(C)C2)sc2ncnc(N3CCCCC3C)c12 (configuration not stated),inactive
13,O=[N+]([O-])c1ccc(N2CCCC2)nc1N1CCCC1,inactive
14,Cc1ccc2c(c1)cc(CN(Cc1ccc3c(c1)OCO3)C(=O)c1cnccn1)c1nnnn12,"inconclusive [inhibitor, full curve]"
15,CCCCCCNC(=O)c1cccc(-c2ccc(C)c3ccccc23)n1,"inconclusive [inhibitor, single point]"
16,O=C(COc1ccccc1[N+](=O)[O-])NNC(=O)Nc1cccc2ccccc12,inactive
17,CC(=O)N[C@@H](Cc1c[nH]c2ccccc12)C(=O)OCc1cc(C(F)(F)F)cc(C(F)(F)F)c1,"inconclusive [inhibitor, partial curve]"
18,CC1=C(C(=O)Nc2ccccc2)C(c2ccco2)C(C#N)=C(SCc2ccccc2)N1 (configuration not stated),"inconclusive [inhibitor, single point]"
19,CCC(C)(C)NC(=O)C(c1ccc(C)cc1)N(Cc1cccs1)C(=O)c1ccc2c(c1)OCCO2 (configuration not stated),"inconclusive [inhibitor, single point]"
20,CCCN1Cc2cccc(C(=O)Nc3ccc4c(c3)OCO4)c2C1=O,"inconclusive [inhibitor, partial curve]"
21,Cc1ccc(N(CC(=O)N/N=C/c2cccs2)S(C)(=O)=O)cc1Cl,"inconclusive [inhibitor, single point]"
22,CCN(CC)c1ccc(NC(=O)Nc2cccc(C(C)=O)c2)cc1,inactive
23,COc1ccc(-c2cc3nc(-c4ccccc4)cc(N4CCCC(O)C4)n3n2)cc1 (configuration not stated),"inconclusive [activator, partial curve]"

row,Structure (SMILES),Potency
1,Cc1cccc(N2CCN(C(=O)Cc3cn(C)c4ccccc34)CC2)c1C,"inconclusive [inhibitor, single point]"
2,CCOC(=S)N/C(=N\S(C)(=O)=O)c1ccccc1,inactive
3,CC(NC(=O)NC1CCCCC1)C(c1cccs1)N1CCN(c2ccccc2)CC1 (configuration not stated),"inconclusive [inhibitor, single point]"
4,CC1(C)CC(=O)C(C=Nc2cccc(/N=C/C3=C(O)CC(C)(C)CC3=O)n2)=C(O)C1,"inconclusive [inhibitor, single point]"
5,COc1ccc(-c2oc(NC(=O)CSc3ncn[nH]3)c(C#N)c2-c2ccc(OC)cc2)cc1,"inconclusive [inhibitor, single point]"
6,CN1CC(c2ccc(C#N)cc2)C2(COc3ccccc3C2=O)C12C(=O)Nc1ccccc12 (configuration not stated),"inconclusive [inhibitor, partial curve]"
7,O=C(NCCCN1CCOCC1)c1cc(C(=O)C2CCCCC2)c[nH]1,inactive
8,COc1ccc(C(c2nnnn2Cc2ccccc2)N2CCN(c3nc4ccccc4s3)CC2)cc1OC (configuration not stated),inactive
9,COc1ccc(C2/C=C\CN(C(=O)C3CCCC3)CC(=O)N2Cc2ccc(F)cc2)cc1 (configuration not stated),inactive
10,Cc1ccc(N2CN=c3s/c(=C\c4cccnc4)c(=O)n3C2)cc1,inactive
11,N#C/C=C(/N)N1CCN(c2ccc(Cl)c(Cl)c2)CC1,"inconclusive [inhibitor, single point]"
12,Cc1ccc(S(=O)(=O)N[C@@H](Cc2ccccc2)C(=O)CCl)cc1,active: 20 µM
13,Cc1cccc2cc(C#N)c(SCC(=O)NCc3cccs3)nc12,active: 7.94 µM
14,CCN(c1ccccc1)S(=O)(=O)c1ccc(NCC2COc3ccccc3O2)nc1 (configuration not stated),"inconclusive [inhibitor, single point]"
15,Cc1noc(C)c1COc1ccc(C(=O)OCC(=O)NC23CC4CC(CC(C4)C2)C3)cc1,"inconclusive [inhibitor, single point]"
16,N#CC1=C(N)OC2=C(CN(Cc3ccccc3)C/C2=C\c2cccnc2)C1c1cccnc1 (configuration not stated),inactive
17,Cc1ccc(-n2c(Cc3cccn3C)nnc2SCC(=O)NCc2ccc3c(c2)OCO3)cc1,"inconclusive [inhibitor, partial curve]"
18,CC(/C=C/c1ccc(C)o1)=C\C(=O)O,inactive
19,Cc1nn(-c2ccc(F)cc2)c(Cl)c1/C=C(\CC(=O)O)c1nc2ccccc2s1,"inconclusive [inhibitor, single point]"
20,COc1ccc(N2C(=O)CC(N(CCc3ccccc3)C(=O)c3ccccc3)C2=O)cc1 (configuration not stated),"inconclusive [inhibitor, single point]"
21,COC1=C(OC)c2ccccc2C(C(=O)O)N/C1=C(/C)Nc1ccncc1 (configuration not stated),"inconclusive [inhibitor, single point]"
22,Cc1ccc2nc3cc([N+](=O)[O-])cc([N+](=O)[O-])c3cc2c1,active: 7.94 µM
23,CCCn1c(N2CCC(Cc3ccccc3)CC2)nc2c1c(=O)[nH]c(=O)n2C,"inconclusive [inhibitor, single point]"

row,Structure (SMILES),Potency
1,CC(C)(C)OC(=O)N[C@@H](Cc1c[nH]c2ccccc12)c1nnc(SCC(N)=O)o1,"inconclusive [inhibitor, single point]"
2,CCN(CC)S(=O)(=O)c1ccc2oc(C(=O)NC3CCCc4ccccc43)c(C)c2c1 (configuration not stated),"inconclusive [inhibitor, full curve, poor fit]"
3,CCOC(=O)c1cc(-c2ccccc2)sc1NC(=O)CC(C)C,"inconclusive [inhibitor, single point]"
4,Cc1cc(C)cc(-n2nnc(C(=O)NCc3ccc(Cl)cc3)c2N)c1,inactive
5,CC(NC(=O)COC(=O)c1cc(NS(=O)(=O)c2ccc(Cl)c([N+](=O)[O-])c2)ccc1O)C1CC2CCC1C2 (configuration not stated),"inconclusive [inhibitor, single point]"
6,COC(=O)c1c(-c2ccc(F)cc2)csc1NC(=O)c1ccco1,"inconclusive [inhibitor, single point]"
7,CC(=O)Oc1ccc(C(=O)Nc2cccc(C(=O)c3ccc(C)c(C)c3)c2)cc1,"inconclusive [inhibitor, partial curve]"
8,Cc1c(C(=O)Nc2ccc(Cl)cc2)c2ccccn2c1C(=O)c1ccccc1,"inconclusive [inhibitor, single point]"
9,CC(C)n1nc(C(=O)OCC(=O)c2c[nH]c3ccccc23)c2ccccc2c1=O,"inconclusive [inhibitor, single point]"
10,NC(=NCCC[C@H](N)C(=O)O)NO,inactive
11,N#Cc1ccc(-c2ccc(F)cc2)nc1Sc1ccc(F)cc1,"inconclusive [inhibitor, single point]"
12,CNc1nc2c(C)cccn2c(=O)c1C=NCc1ccccc1,"inconclusive [inhibitor, single point]"
13,CCN(CC)c1ccc(NC(=O)CC2Oc3ccccc3NC2=O)c(C)c1 (configuration not stated),inactive
14,Cc1c(CN2CCC(CO)(CCOc3ccccc3)CC2)[nH]c2c(Cl)cccc12,"inconclusive [inhibitor, single point]"
15,CCO[C@@H]1OC(C(=O)Nc2ccccc2)=C[C@H](c2csc3ccccc23)[C@H]1CCCO,"inconclusive [activator, single point]"
16,O=C(Nc1ccc(F)cc1)N1CCOCC1,inactive
17,COc1ccc(NC(=O)/C(Cl)=C(/Cl)S(=O)Cc2ccc(Cl)cc2)cn1 (configuration not stated),active: 7.94 µM
18,Cc1ccc([N+](=O)[O-])cc1NC(=O)CN(C(=O)c1ccc(Cl)cc1)C1CCCCC1,"inconclusive [inhibitor, partial curve]"
19,O=C(CSc1nc(C2CC2)nc2ccccc12)Nc1ccc2c(c1)OCCO2,"inconclusive [inhibitor, partial curve]"
20,CC1CCCN(c2nc(N(C)c3ccccc3)nc(N)c2[N+](=O)[O-])C1 (configuration not stated),"inconclusive [activator, single point]"
21,O=C(N/N=C/c1ccc(Cl)c([N+](=O)[O-])c1)c1cc(-c2ccc3c4c(cccc24)CC3)n[nH]1,"inconclusive [inhibitor, single point]"
